# Assay results taken from the supplement of paper PMC3724861.
# The other results are listed elsewhere or left out.
# System: T1, Caupolican (Caup) homeodomain DNA-binding domain
# T1 sequence: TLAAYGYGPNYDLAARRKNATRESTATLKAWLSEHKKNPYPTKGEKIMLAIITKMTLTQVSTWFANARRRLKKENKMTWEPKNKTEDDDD
# Test: PBM E-score (8-mer, recovered from the published 9-mer minima) (E-score (dimensionless, -0.5 to 0.5)); Drosophila protein; higher = stronger relative binding preference, active = 0.31 or more
# Summary of the method: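 Caup's homeodomain DNA-binding domain (residues 214-303) was made by in vitro transcription and translation and applied at 100 nM to custom-designed protein binding microarrays. Each value is an enrichment score that gives relative binding preference for a short DNA word, with higher meaning stronger. The 8-mer values were recovered from published 9-mer scores, each of which was the minimum of its two constituent 8-mer scores. A cutoff of 0.31 marks candidate sites.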
row,Sequence,PBM E-score
1,AGTCTACA,inactive: 0.125
2,GTTTCTGA,inactive: -0.00907
3,TGCTCGAA,inactive: 0.0393
4,CGCGAGCA,inactive: -0.0924
5,ATAGAATG,inactive: 0.156
6,CCCTAAAC,inactive: -0.0887
7,CGGACCAA,inactive: 0.0071
8,GGGAGTTA,inactive: -0.0818
9,CGGGTCTC,inactive: -0.113
10,AACCAGAT,inactive: 0.153
11,ACCGTAAC,inactive: -0.0155
12,AGACTAAC,inactive: -0.0237
13,AAGCCCCC,inactive: -0.36
14,ATTTCTGA,inactive: 0.0425
15,TACCACCA,inactive: 0.0696
16,GCATGGGC,inactive: -0.179
17,CTAAACGC,inactive: -0.0672
18,CCCTCATA,inactive: -0.0357
19,AGTTTTCG,inactive: 0.0178
20,GGCCTGCA,inactive: -0.239
21,ATACTTAG,inactive: 0.0483
22,GGGGCAAC,inactive: -0.0774
23,ATGGACTC,inactive: -0.0423
24,ATTGTAAA,inactive: 0.246

row,Sequence,PBM E-score
1,ATTCAACG,inactive: 0.031
2,ACCTATAC,inactive: 0.12
3,CTGGGTCA,inactive: -0.12
4,AAATAAAT,inactive: 0.109
5,CATGTGCG,inactive: 0.108
6,GAGCTGTA,inactive: 0.079
7,GGCGGCAC,inactive: -0.24
8,CCCTGTTA,inactive: 0.126
9,AGTGGTGG,inactive: -0.0979
10,CGTGCCAA,inactive: -0.115
11,AGGGGCTA,inactive: -0.162
12,TCACGCAA,inactive: 0.0565
13,CGTCACTC,inactive: -0.181
14,GATAGTAC,inactive: 0.172
15,CCTACCCC,inactive: -0.298
16,AACAGTGG,inactive: 0.0316
17,ATCTTTCG,inactive: -0.0796
18,CCCCGGAA,inactive: -0.169
19,CAACCTGG,inactive: 0.0642
20,ACATAAAA,inactive: 0.221
21,AAATCAGA,inactive: 0.161
22,CTGCCGAC,inactive: -0.164
23,CCCCCACA,inactive: -0.245
24,CCACGCCC,inactive: -0.293

row,Sequence,PBM E-score
1,ACTTGTCT,inactive: 0.267
2,ATTCTCCA,inactive: 0.00731
3,AGACGGGA,inactive: -0.0718
4,ACTAACTC,inactive: -0.00618
5,ACGTCGAT,≥ 0.065
6,CCGTCATA,inactive: -0.0609
7,CAATTAGC,inactive: 0.00801
8,ACACTTTA,≥ 0.17
9,CTGATAAG,inactive: 0.0562
10,TACCATGA,inactive: 0.0158
11,AGGGCCCG,inactive: -0.246
12,GTCTTTCA,inactive: -0.0676
13,ACCAATCA,inactive: 0.122
14,ACGTTTGC,inactive: 0.00181
15,CGAGAAAC,inactive: -0.0514
16,ATCGGGAG,inactive: -0.0742
17,AACCGCTT,inactive: 0.00313
18,ATTCGCTG,inactive: 0.0251
19,GACCGCGC,inactive: -0.169
20,AAGCGGAC,inactive: -0.153
21,CACGGTGG,inactive: 0.0613
22,ACCGGGGC,inactive: -0.212
23,GCGAAGTA,inactive: -0.0099
24,ACAATGAG,inactive: 0.0755

row,Sequence,PBM E-score
1,CCACGCTC,inactive: -0.249
2,ACGGTGAC,inactive: 0.0442
3,ATCGACAC,inactive: 0.203
4,CTTCACAA,inactive: -0.0159
5,ATATGCAG,inactive: 0.00703
6,GCTGGTCA,inactive: -0.059
7,ATGGTGGA,inactive: -0.0319
8,CCGTTTAG,inactive: -0.13
9,AACTGTCT,inactive: 0.0127
10,AGGGTCGA,inactive: -0.131
11,AGCAGTGA,inactive: 0.0041
12,CCTCAAAG,inactive: -0.148
13,AGTGAGTC,inactive: 0.0484
14,ACCTCAGT,inactive: -0.00921
15,CAATTTGC,inactive: -0.0334
16,GCCCTTCC,inactive: -0.169
17,ATTTAGAG,inactive: 0.00973
18,AAGCGTTA,inactive: 0.0271
19,ATCGGACC,inactive: -0.0566
20,GACGCCAC,inactive: -0.11
21,AAGGAAGC,inactive: -0.142
22,TAGAACCA,inactive: 0.0285
23,ACCCCGCG,inactive: -0.173
24,GTAGCAGA,inactive: 0.0578

row,Sequence,PBM E-score
1,CCCCCAAC,inactive: -0.254
2,CCTGTGGA,inactive: -0.106
3,GCAAGATA,inactive: 0.0639
4,ATGCCGGC,inactive: -0.134
5,GCGACCGC,inactive: -0.261
6,ACGCTAAC,inactive: -0.0131
7,AGAGGTGC,inactive: -0.134
8,CAGGCACA,inactive: -0.0333
9,CTAGATGA,inactive: -0.0284
10,GTAATAAC,inactive: 0.26
11,GAGGTTTA,inactive: -0.0507
12,GTGCTGGA,inactive: -0.0566
13,ACAATAGT,inactive: 0.206
14,AAGAATAA,inactive: 0.129
15,ACATCGGC,inactive: 0.134
16,GCATTCAC,inactive: -0.00731
17,GCAAAGAC,inactive: -0.0679
18,AAACTTCG,inactive: -0.0286
19,AACAGACG,inactive: 0.0277
20,AATGCCAC,inactive: -0.119
21,CCAGACGA,inactive: -0.0846
22,ATCTGGCA,inactive: -0.0652
23,ACGGCAAG,inactive: -0.0241
24,ACTTGGAA,inactive: -0.0157

row,Sequence,PBM E-score
1,AAGGAGCT,inactive: -0.12
2,CTACATGC,active: 0.369
3,GTCGTATA,inactive: 0.165
4,ACCAGAGC,inactive: -0.0284
5,AAGAATAG,inactive: 0.0169
6,AATGGAAC,inactive: 0.0496
7,CGAAAGCG,inactive: -0.0814
8,GCGACCCC,inactive: -0.269
9,ACTTGGCG,inactive: -0.128
10,AGTTGGTA,inactive: 0.132
11,AACTCAAG,inactive: 0.0468
12,AGGGCTCC,inactive: -0.298
13,CCTTGTCG,inactive: 0.277
14,ATCTCATG,inactive: 0.127
15,GGGACATA,inactive: 0.113
16,GGCACGAA,inactive: -0.0704
17,ACTGGAGC,inactive: -0.152
18,CGTCGTAC,inactive: 0.177
19,AATTCAGA,≥ 0.107
20,CGACAAAC,inactive: 0.141
21,CAGATCTG,inactive: 0.026
